The list shows a part of the results. Most values come without repeats; read them as rough.
What was measured:
Assay in all cases: cell count relative to DMSO control; melanoma cells; higher = more viable cells
Conditions in all cases: library dose: low library concentration; 72 h; first compound 0.4 µM
MZ2-MEL = test system: MZ2-MEL
MeWo = test system: MeWo
RPMI7951 = test system: RPMI7951
RVH-421 = test system: RVH-421
SkMel28 = test system: SkMel28
SkMel2 = test system: SkMel2
SkMel30 = test system: SkMel30
UACC62 = test system: UACC62
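Further: cell number obtained by counting DAPI-stained nuclei in high-throughput microscope images with image analysis software, screen run in 1,536-well plates.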

| SMILES | cell count (MZ2-MEL) | cell count (MeWo) | cell count (RPMI7951) | cell count (RVH-421) | cell count (SkMel28) | cell count (SkMel2) | cell count (SkMel30) | cell count (UACC62) |
| --- | --- | --- | --- | --- | --- | --- | --- | --- |
| CCCCCCCCCCCCCCCCCCOP(=O)([O-])OC1CC[N+](C)(C)CC1 [Perifosine] + CN1CCN(c2ccc3nc(-c4c(N)c5c(F)cccc5[nH]c4=O)[nH]c3c2)CC1 [Dovitinib] (partner dose 0.1 µM) | 91.9% | 92.5% | 83.9% | 110% | 89.5% | 96.5% | 80.9% | 94.7% |
| Cn1sc(=O)n(Cc2ccccc2)c1=O + O=C(O)[C@@H]1[O][Sb](=[O])([O][Sb]2(=[O])[O][C@H]([C@H](O)CO)[C@H](O)[C@H](C(=O)O)[O]2)[O][C@H]([C@H](O)CO)[C@@H]1O [stibogluconate] (partner dose 2 µM) |  | 104% | 77.4% | 77.3% | 98.5% |  | 107% | 79.8% |
| Cn1sc(=O)n(Cc2ccccc2)c1=O + CN(c1ncccc1CNc1nc(Nc2ccc3c(c2)CC(=O)N3)ncc1C(F)(F)F)S(C)(=O)=O [PF562271] (partner dose 0.08 µM) | 108% | 107% | 78% | 112% | 105% | 94.2% | 97.7% | 86.6% |
| C[C@@H](N)c1ccc(C(=O)Nc2ccnc3[nH]ccc23)cc1 + C[C@@H](Oc1cc(-c2cnn(C3CCNCC3)c2)cnc1N)c1c(Cl)ccc(F)c1Cl [Crizotinib] (partner dose 0.2 µM) |  | 89% | 78.3% | 72.6% | 90% | 109% | 107% | 95.4% |
| Cn1sc(=O)n(Cc2ccccc2)c1=O + CO[C@H]1C[C@@H]2CC[C@@H](C)[C@@](O)(O2)C(=O)C(=O)N2CCCC[C@H]2C(=O)O[C@H]([C@H](C)C[C@@H]2CC[C@@H](OCCO)[C@H](OC)C2)CC(=O)[C@H](C)/C=C(\C)[C@@H](O)[C@@H](OC)C(=O)[C@H](C)C[C@H](C)/C=C/C=C/C=C/1C [everolimus] (partner dose 0.02 µM) | 79.4% | 77.7% | 86.2% | 75.4% | 64.7% |  | 79.1% | 64% |
| CCCCCCCCCCCCCCCCCCOP(=O)([O-])OC1CC[N+](C)(C)CC1 [Perifosine] + C=C(c1ccc(C(=O)O)cc1)c1cc2c(cc1C)C(C)(C)CCC2(C)C [Bexarotene] (partner dose 2 µM) | 94.9% | 90% | 57.7% | 93.6% | 74.1% | 94.9% | 93.7% | 78.3% |
| C[C@@H](N)c1ccc(C(=O)Nc2ccnc3[nH]ccc23)cc1 + CS(=O)(=O)CCNCc1ccc(-c2ccc3ncnc(Nc4ccc(OCc5cccc(F)c5)c(Cl)c4)c3c2)o1 [lapatinib] (partner dose 0.8 µM) | 71.9% | 72.9% | 77.6% | 64.4% | 74% | 90.1% | 110% | 84.3% |
| Cn1sc(=O)n(Cc2ccccc2)c1=O + C[C@]1(c2nc3c(C(N)=O)cccc3[nH]2)CCCN1 [Veliparib] (partner dose 1.4 µM) | 107% | 94.9% | 117% | 89.1% | 86.4% | 95% | 87.6% | 96.9% |
| C[C@@H](N)c1ccc(C(=O)Nc2ccnc3[nH]ccc23)cc1 + CN(c1ncccc1CNc1nc(Nc2ccc3c(c2)CC(=O)N3)ncc1C(F)(F)F)S(C)(=O)=O [PF562271] (partner dose 0.08 µM) |  | 72.6% | 58.9% | 80.3% | 72.6% | 84.2% | 107% | 89% |
| CCCCCCCCCCCCCCCCCCOP(=O)([O-])OC1CC[N+](C)(C)CC1 [Perifosine] + CC(=O)c1c(C)c2cnc(Nc3ccc(N4CCNCC4)cn3)nc2n(C2CCCC2)c1=O [palbociclib] (partner dose 0.04 µM) | 97.4% | 72% | 56.5% | 88.7% | 69.9% | 88.2% | 68.1% | 71.9% |
| CCCCCCCCCCCCCCCCCCOP(=O)([O-])OC1CC[N+](C)(C)CC1 [Perifosine] + Cn1nnc2c(C(N)=O)ncn2c1=O [temozolomide] (partner dose 2 µM) | 101% | 108% | 88.7% | 86.5% | 77.7% | 107% | 88.8% | 86.3% |
| C[C@@H](N)c1ccc(C(=O)Nc2ccnc3[nH]ccc23)cc1 + Cn1sc(=O)n(Cc2ccccc2)c1=O [TDZD-8] (partner dose 0.4 µM) | 69.7% | 81.5% | 88.7% | 53.1% | 101% | 92.5% | 124% | 116% |
| C[C@@H](N)c1ccc(C(=O)Nc2ccnc3[nH]ccc23)cc1 + CCN(CC)CCNC(=O)c1c(C)[nH]c(/C=C2\C(=O)Nc3ccc(F)cc32)c1C [sunitinib] (partner dose 0.4 µM) |  | 83.3% | 80% | 92.6% | 87.7% | 110% | 104% | 96.8% |
| CCCCCCCCCCCCCCCCCCOP(=O)([O-])OC1CC[N+](C)(C)CC1 [Perifosine] + C[C@@H](N)c1ccc(C(=O)Nc2ccnc3[nH]ccc23)cc1 [RKI983] (partner dose 0.4 µM) | 87.6% | 83.8% | 70.2% | 88.6% | 84.2% | 82% | 110% | 90.9% |

From the supplement of paper PMC4604168 (melanoma cell lines)
